Test results: the supplement of paper PMC4604168 (melanoma cell lines)
The other results are listed elsewhere or left out. Single values are uncertain, as repeats are few or missing.

Tested on: WM451Lu
Experiment: cell count relative to DMSO control; melanoma cells; higher = more viable cells
Settings: library dose: low library concentration; 72 h
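Further: cell number obtained by counting DAPI-stained nuclei in high-throughput microscope images with image analysis software, screen run in 1,536-well plates.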

| SMILES | cell count |
| --- | --- |
| CN(C)S(=O)(=O)c1ccc2c(c1)/C(=C/c1cc3c([nH]1)CCCC3)C(=O)N2 + O=C(O)c1ccc(-c2c[nH]c3ncc(-c4ccccc4)cc23)cc1C1CCCC1 [GSK650394] (first compound 0.4 µM, partner dose 0.16 µM) | 87.4% |
| CO[C@@H]1[C@H](N(C)C(=O)c2ccccc2)C[C@H]2O[C@]1(C)n1c3ccccc3c3c4c(c5c6ccccc6n2c5c31)C(=O)NC4 [Midostaurin] + O=C(Nc1cccc(Cl)c1)Nc1ncc(CCNc2ncnc3ccsc23)s1 [SNS314] (first compound 0.08 µM, partner dose 0.0008 µM) | 98.8% |
| C=CCn1c(=O)c2cnc(Nc3ccc(N4CCN(C)CC4)cc3)nc2n1-c1cccc(C(C)(C)O)n1 + OCCn1cc(-c2cnc3nnn(Cc4ccc5ncccc5c4)c3n2)cn1 [PF04217903] (first compound 0.02 µM, partner dose 1 µM) | 75.6% |
| C[C@]1(c2nc3c(C(N)=O)cccc3[nH]2)CCCN1 [Veliparib] + COc1ccc2c(c1)CCC1C2CCC2(C)C(NCCCCCCN3C(=O)C=CC3=O)CCC12 [U73122] (first compound 1.4 µM, partner dose 0.4 µM) | 96.6% |
| CO[C@@H]1[C@H](N(C)C(=O)c2ccccc2)C[C@H]2O[C@]1(C)n1c3ccccc3c3c4c(c5c6ccccc6n2c5c31)C(=O)NC4 [Midostaurin] + Cc1cc([N+](=O)[O-])ccc1NS(=O)(=O)c1cc(Cl)ccc1Cl [FH535] (first compound 0.08 µM, partner dose 1 µM) | 97.2% |
| NC(=O)Nc1cc(-c2cccc(F)c2)sc1C(=O)N[C@H]1CCCNC1 + CCCCCCCCCCCC1=C(O)C(=O)C=C(O)C1=O [Embelin] (first compound 0.02 µM, partner dose 1.2 µM) | 87.4% |
| CO[C@@H]1[C@H](N(C)C(=O)c2ccccc2)C[C@H]2O[C@]1(C)n1c3ccccc3c3c4c(c5c6ccccc6n2c5c31)C(=O)NC4 [Midostaurin] + CCN(CC)CCCCNc1ncc2cc(-c3cc(OC)cc(OC)c3)c(NC(=O)NC(C)(C)C)nc2n1 [PD173074] (first compound 0.08 µM, partner dose 0.1 µM) | 111% |
| CO[C@@H]1[C@H](N(C)C(=O)c2ccccc2)C[C@H]2O[C@]1(C)n1c3ccccc3c3c4c(c5c6ccccc6n2c5c31)C(=O)NC4 [Midostaurin] + Cn1cncc1[C@@](N)(c1ccc(Cl)cc1)c1ccc2c(c1)c(-c1cccc(Cl)c1)cc(=O)n2C [tipifarnib] (first compound 0.08 µM, partner dose 0.01 µM) | 75.1% |
| CO[C@@H]1[C@H](N(C)C(=O)c2ccccc2)C[C@H]2O[C@]1(C)n1c3ccccc3c3c4c(c5c6ccccc6n2c5c31)C(=O)NC4 [Midostaurin] + CN(NC(=O)CC(=O)NN(C)C(=S)c1ccccc1)C(=S)c1ccccc1 [STA4783] (first compound 0.08 µM, partner dose 0.006 µM) | 93.5% |
| Cc1nc(Nc2ncc(C(=O)Nc3c(C)cccc3Cl)s2)cc(N2CCN(CCO)CC2)n1 [dasatanib] + CC(C)CCN1c2nc(Nc3cc(F)c(O)c(F)c3)ncc2N(C)C(=O)C1C [BID1870] (first compound 0.004 µM, partner dose 0.2 µM) | 103% |
| NC(=O)Nc1cc(-c2cccc(F)c2)sc1C(=O)N[C@H]1CCCNC1 + COC(=O)c1sccc1S(=O)(=O)Nc1ccc(Nc2ccccc2)cc1OC [GSK0660] (first compound 0.02 µM, partner dose 1 µM) | 138% |
| Cc1nc(Nc2ncc(C(=O)Nc3c(C)cccc3Cl)s2)cc(N2CCN(CCO)CC2)n1 [dasatanib] + NCC(=O)Nc1ccc(-n2nc(C(F)(F)F)cc2-c2ccc3c(ccc4ccccc43)c2)cc1 [OSU03012] (first compound 0.004 µM, partner dose 1 µM) | 58.4% |
| NC(=O)Nc1cc(-c2cccc(F)c2)sc1C(=O)N[C@H]1CCCNC1 + O=C(O)C(=O)Nc1sc2c(c1C(=O)O)CCNC2 [TCS401] (first compound 0.02 µM, partner dose 1.66667 µM) | 77.4% |
| OCCn1cc(-c2cnc3nnn(Cc4ccc5ncccc5c4)c3n2)cn1 + COc1ccc(COc2ccc(Cc3cnc(N)nc3N)cc2OC)cc1 [GW2580] (first compound 1 µM, partner dose 1 µM) | 103% |
| Cc1nc(Nc2ncc(C(=O)Nc3c(C)cccc3Cl)s2)cc(N2CCN(CCO)CC2)n1 [dasatanib] + O=C(Nc1ccccc1)c1cc([N+](=O)[O-])ccc1Cl [GW9662] (first compound 0.004 µM, partner dose 2 µM) | 41.7% |
| NC(=O)Nc1cc(-c2cccc(F)c2)sc1C(=O)N[C@H]1CCCNC1 + COc1cc2ncnc(Nc3ccc(Oc4ccccc4)cc3)c2cc1OC [SrcI1] (first compound 0.02 µM, partner dose 2 µM) | 96% |

| SMILES | cell count |
| --- | --- |
| NC(=O)Nc1cc(-c2cccc(F)c2)sc1C(=O)N[C@H]1CCCNC1 + COc1cc2c(Oc3ccc4[nH]c(C)cc4c3F)ncnc2cc1OCCCN1CCCC1 [cediranib] (first compound 0.02 µM, partner dose 0.4 µM) | 110% |
| C=CCn1c(=O)c2cnc(Nc3ccc(N4CCN(C)CC4)cc3)nc2n1-c1cccc(C(C)(C)O)n1 + N#Cc1c(O)c2c(-c3ccc(-c4ccccc4O)cc3)csc2[nH]c1=O [A769662] (first compound 0.02 µM, partner dose 2 µM) | 118% |
| NC(=O)Nc1cc(-c2cccc(F)c2)sc1C(=O)N[C@H]1CCCNC1 + c1cc(-c2cnn3cc(-c4ccc(OCCN5CCCCC5)cc4)cnc23)ccn1 [Dorsomorphin] (first compound 0.02 µM, partner dose 0.4 µM) | 93.6% |
| Cc1nc(Nc2ncc(C(=O)Nc3c(C)cccc3Cl)s2)cc(N2CCN(CCO)CC2)n1 [dasatanib] + O=C(CCCCCCC(=O)Nc1ccccc1)NO [vorinostat] (first compound 0.004 µM, partner dose 0.08 µM) | 49.1% |
| Cc1nc(Nc2ncc(C(=O)Nc3c(C)cccc3Cl)s2)cc(N2CCN(CCO)CC2)n1 [dasatanib] + Nc1cccc2c1CN(C1CCC(=O)NC1=O)C2=O [lenalidomide] (first compound 0.004 µM, partner dose 1 µM) | 73.3% |
| C=CCn1c(=O)c2cnc(Nc3ccc(N4CCN(C)CC4)cc3)nc2n1-c1cccc(C(C)(C)O)n1 + C[C@@H]1CCN(C(=O)CC#N)C[C@@H]1N(C)c1ncnc2[nH]ccc12 [CP690550] (first compound 0.02 µM, partner dose 1 µM) | 89.9% |
| CO[C@@H]1[C@H](N(C)C(=O)c2ccccc2)C[C@H]2O[C@]1(C)n1c3ccccc3c3c4c(c5c6ccccc6n2c5c31)C(=O)NC4 [Midostaurin] + O=C(Nc1ccccc1)c1cc([N+](=O)[O-])ccc1Cl [GW9662] (first compound 0.08 µM, partner dose 2 µM) | 94.2% |
| NC(=O)Nc1cc(-c2cccc(F)c2)sc1C(=O)N[C@H]1CCCNC1 + COc1ccc(-c2ccc3c(N4CCOCC4)nc(N4C[C@@H](C)O[C@@H](C)C4)nc3n2)cc1CO [KU0063794] (first compound 0.02 µM, partner dose 0.02 µM) | 93.9% |
| CO[C@@H]1[C@H](N(C)C(=O)c2ccccc2)C[C@H]2O[C@]1(C)n1c3ccccc3c3c4c(c5c6ccccc6n2c5c31)C(=O)NC4 [Midostaurin] + Oc1nc(-c2ccc(C(F)(F)F)cc2)nc2c1CSCC2 [XAV939] (first compound 0.08 µM, partner dose 2 µM) | 93.8% |
| C[C@]1(c2nc3c(C(N)=O)cccc3[nH]2)CCCN1 [Veliparib] + Cc1cc(N2CCOCC2)cc2[nH]c(-c3c(NC[C@@H](O)c4cccc(Cl)c4)cc[nH]c3=O)nc12 [BMS536924] (first compound 1.4 µM, partner dose 0.2 µM) | 92.7% |
| CN(C)S(=O)(=O)c1ccc2c(c1)/C(=C/c1cc3c([nH]1)CCCC3)C(=O)N2 + CCCCCCCCCCCC1=C(O)C(=O)C=C(O)C1=O [Embelin] (first compound 0.4 µM, partner dose 1.2 µM) | 103% |
| C[C@]1(c2nc3c(C(N)=O)cccc3[nH]2)CCCN1 [Veliparib] + c1cc(-c2cnn3cc(-c4ccc(OCCN5CCCCC5)cc4)cnc23)ccn1 [Dorsomorphin] (first compound 1.4 µM, partner dose 0.4 µM) | 96.6% |
| NC(=O)Nc1cc(-c2cccc(F)c2)sc1C(=O)N[C@H]1CCCNC1 + Cn1cc(/C=C2\C(=O)Nc3cccnc32)c2ccccc21 [GW441756] (first compound 0.02 µM, partner dose 0.4 µM) | 97.3% |
| CN(C)S(=O)(=O)c1ccc2c(c1)/C(=C/c1cc3c([nH]1)CCCC3)C(=O)N2 + Cc1cc([N+](=O)[O-])ccc1NS(=O)(=O)c1cc(Cl)ccc1Cl [FH535] (first compound 0.4 µM, partner dose 1 µM) | 120% |
| NC(=O)Nc1cc(-c2cccc(F)c2)sc1C(=O)N[C@H]1CCCNC1 + O=C(Nc1ccccc1)c1cc([N+](=O)[O-])ccc1Cl [GW9662] (first compound 0.02 µM, partner dose 2 µM) | 72.4% |
